{"source": "paper PMC4336329", "about": "(PLoS ONE, 2015)", "note": "Out of some 310,000 compounds screened, about 14,000 (4.5%) showed an effect of 50% or more. The effect is printed as a negative number. The list shows a part of the results.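 Note: peak tail current of the secondary pulse compared with the same well before compound.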", "data": [{"target": "human ether-à-go-go-related gene (hERG) potassium channel (human, UniProt Q12809)", "sequence (Q12809 whole entry, looked up)": "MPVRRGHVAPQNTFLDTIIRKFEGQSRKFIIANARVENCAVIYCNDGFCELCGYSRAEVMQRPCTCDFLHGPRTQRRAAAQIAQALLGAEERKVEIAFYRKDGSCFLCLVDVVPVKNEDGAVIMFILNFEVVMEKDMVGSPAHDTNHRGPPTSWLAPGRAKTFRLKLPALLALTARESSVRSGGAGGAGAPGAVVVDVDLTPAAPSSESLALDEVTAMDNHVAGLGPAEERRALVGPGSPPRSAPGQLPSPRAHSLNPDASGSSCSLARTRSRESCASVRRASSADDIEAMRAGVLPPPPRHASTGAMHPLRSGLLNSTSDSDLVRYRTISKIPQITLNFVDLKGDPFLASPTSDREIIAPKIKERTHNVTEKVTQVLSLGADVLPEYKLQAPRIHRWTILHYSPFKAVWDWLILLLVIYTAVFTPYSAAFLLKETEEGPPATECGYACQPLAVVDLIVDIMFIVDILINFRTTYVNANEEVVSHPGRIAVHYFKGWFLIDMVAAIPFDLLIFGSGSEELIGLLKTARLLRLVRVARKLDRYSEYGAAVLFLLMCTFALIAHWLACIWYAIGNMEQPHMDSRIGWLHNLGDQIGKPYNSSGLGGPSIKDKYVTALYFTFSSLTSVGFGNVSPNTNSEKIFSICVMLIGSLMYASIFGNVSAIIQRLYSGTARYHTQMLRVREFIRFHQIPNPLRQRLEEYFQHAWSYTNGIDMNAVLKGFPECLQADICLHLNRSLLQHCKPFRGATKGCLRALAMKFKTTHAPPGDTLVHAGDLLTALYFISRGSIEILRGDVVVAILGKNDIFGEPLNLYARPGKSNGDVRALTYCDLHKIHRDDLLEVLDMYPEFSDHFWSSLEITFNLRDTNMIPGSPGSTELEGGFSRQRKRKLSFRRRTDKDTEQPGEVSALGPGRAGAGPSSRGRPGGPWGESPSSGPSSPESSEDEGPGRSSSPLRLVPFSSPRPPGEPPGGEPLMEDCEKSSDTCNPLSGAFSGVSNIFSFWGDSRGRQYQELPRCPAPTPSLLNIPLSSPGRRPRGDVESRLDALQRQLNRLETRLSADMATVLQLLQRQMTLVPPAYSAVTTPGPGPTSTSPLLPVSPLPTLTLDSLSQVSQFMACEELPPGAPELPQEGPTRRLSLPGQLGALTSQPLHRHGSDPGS", "assay": "primary screen, population patch clamp on CHO cells stably expressing hERG", "units": {"hERG current change (%, negative = inhibition) at 10uM": "%"}, "values": [{"smiles": "C=CCn1c(SCCOc2ccc(OC)cc2)nnc1C(NC(=O)c1ccc(OC)cc1)C(C)C", "note": "(stereo not drawn)", "hERG current change (%, negative = inhibition) at 10uM": -8.7}, {"smiles": "Cc1ccc(S(=O)(=O)N2CCCN(c3nc4cc(C)ccc4cc3C#N)CC2)cc1", "hERG current change (%, negative = inhibition) at 10uM": 3.44}, {"smiles": "O=C(NCc1ccco1)C1CC2CCC1C2", "note": "(stereo not drawn)", "hERG current change (%, negative = inhibition) at 10uM": -5.56}, {"smiles": "COc1ccc(C(=O)Nc2ccc(S(=O)(=O)N3CCOCC3)cc2)cc1[N+](=O)[O-]", "hERG current change (%, negative = inhibition) at 10uM": 9.11}, {"smiles": "COCCCNC(=O)/C=C/c1c(Cl)cccc1Cl", "hERG current change (%, negative = inhibition) at 10uM": 5.88}, {"smiles": "Clc1ccc(CNc2nc(N3CCOCC3)nc(N3CCOCC3)n2)cc1", "hERG current change (%, negative = inhibition) at 10uM": -20}, {"smiles": "COc1ccc(C(=O)NCC(=O)N2CCC(C)CC2)cc1OC", "hERG current change (%, negative = inhibition) at 10uM": 8.89}, {"smiles": "COc1ccc(O)c(C(=O)c2cnn(C(=O)c3ccc(C)cc3)c2)c1", "hERG current change (%, negative = inhibition) at 10uM": 1.18}, {"smiles": "COc1ccccc1N(CC(=O)N1CCN(c2ccccc2)CC1)S(=O)(=O)c1ccc(C)cc1", "hERG current change (%, negative = inhibition) at 10uM": 17.5}, {"smiles": "CCOC(=O)C1C2c3ccccc3O[C@@]1(C)N=C1SCC(=O)N12", "note": "(stereo partly drawn)", "hERG current change (%, negative = inhibition) at 10uM": 3.9}, {"smiles": "COc1ccc(C(=O)C[n+]2cc(-c3ccc(OC)cc3)n3c2CCCC3)cc1.[Br-]", "hERG current change (%, negative = inhibition) at 10uM": -10.1}, {"smiles": "CCCCCC(=O)N1CCN(CCN=CC2=C(O)CC(c3cccs3)CC2=O)CC1", "note": "(stereo not drawn)", "hERG current change (%, negative = inhibition) at 10uM": -106}, {"smiles": "CCOC(=O)c1c(NC(=O)Nc2ccc(C)cc2)sc2c1CCN(C)C2", "hERG current change (%, negative = inhibition) at 10uM": -47.6}, {"smiles": "COc1cccc(NC(=O)CN(C)C(=O)c2cccc(NS(=O)(=O)c3ccccc3)c2)c1", "hERG current change (%, negative = inhibition) at 10uM": -8.55}, {"smiles": "COc1cccc(NC(=S)/C(=C(\\[O-])c2ccc([N+](=O)[O-])cc2)[n+]2ccccc2)c1", "hERG current change (%, negative = inhibition) at 10uM": 1.65}, {"smiles": "CC(=O)Nc1nc(C)nc(-c2ccccc2OC(C)=O)n1", "hERG current change (%, negative = inhibition) at 10uM": -9}, {"smiles": "CCCCNc1nc2cccnc2s1", "hERG current change (%, negative = inhibition) at 10uM": 14.8}, {"smiles": "CC(=O)c1sc(N/N=C\\c2ccc(Br)cc2)nc1C", "hERG current change (%, negative = inhibition) at 10uM": 4.97}, {"smiles": "O=S(=O)(Cc1noc(-c2ccccc2Cl)n1)c1ccccn1", "hERG current change (%, negative = inhibition) at 10uM": -7.24}, {"smiles": "Cc1ccc(Cl)cc1NC(=S)N(CCN(C)C)C(C)c1ccccn1", "note": "(stereo not drawn)", "hERG current change (%, negative = inhibition) at 10uM": -29.6}, {"smiles": "CCOC(=O)C1CCCN(C2CC(=O)N(c3ccc(C(C)C)cc3)C2=O)C1", "note": "(stereo not drawn)", "hERG current change (%, negative = inhibition) at 10uM": -10}, {"smiles": "COc1ccc(NC(=O)c2ccccc2C(=O)N2CCCCC2)cc1", "hERG current change (%, negative = inhibition) at 10uM": 25.9}, {"smiles": "O=C(Cn1c(=O)sc2ccccc21)N1CCOCC1", "hERG current change (%, negative = inhibition) at 10uM": 8.47}, {"smiles": "CC(C)=NNc1nc2sc3c(c2c(=O)[nH]1)CC(C)(C)OC3", "hERG current change (%, negative = inhibition) at 10uM": -13}, {"smiles": "COC(=O)NCC12CC3CC(C1)CC(CNC(=O)OC)(C3)C2", "hERG current change (%, negative = inhibition) at 10uM": 5}, {"smiles": "CC(=O)/C(=N\\Nc1cccc(Cl)c1)Sc1cccc2cccnc12", "hERG current change (%, negative = inhibition) at 10uM": -14.5}, {"smiles": "CCC(=O)NC(c1cc(Cl)c2cccnc2c1O)C(C)C", "note": "(stereo not drawn)", "hERG current change (%, negative = inhibition) at 10uM": -1.09}, {"smiles": "O=C(CN1C(=O)/C(=C\\c2ccc(F)cc2)Oc2ccccc21)NCc1ccco1", "hERG current change (%, negative = inhibition) at 10uM": 12.4}, {"smiles": "O=C(O)COc1ccc(/C=N/n2c(COc3ccccc3)nc3ccccc3c2=O)cc1", "hERG current change (%, negative = inhibition) at 10uM": 8.57}, {"smiles": "Cc1cc(C)n2nc(C(=O)NC(C)(C)C)nc2n1", "hERG current change (%, negative = inhibition) at 10uM": 8.81}, {"smiles": "C=CCNS(=O)(=O)c1ccc(OCC(=O)OCC)cc1", "hERG current change (%, negative = inhibition) at 10uM": -4.54}, {"smiles": "O=C(NCC1CCCO1)c1coc2nc3ccccc3nc12", "note": "(stereo not drawn)", "hERG current change (%, negative = inhibition) at 10uM": -13.9}, {"smiles": "COc1ccc(-c2noc(N3CCC(C(=O)Nc4ccccc4Cl)CC3)n2)cc1", "hERG current change (%, negative = inhibition) at 10uM": 10.8}, {"smiles": "O=S(=O)(NCc1ccco1)c1cccc(S(=O)(=O)N2CCCCC2)c1", "hERG current change (%, negative = inhibition) at 10uM": -32.2}, {"smiles": "CCc1ccccc1N(C(=O)c1snc(C(N)=O)c1N)C(C(=O)NCC1CCCO1)c1c[nH]c2ccccc12", "note": "(stereo not drawn)", "hERG current change (%, negative = inhibition) at 10uM": 1.69}, {"smiles": "COc1ccc(CCNC(=O)C(=O)NCc2cccs2)cc1OC", "hERG current change (%, negative = inhibition) at 10uM": 8.95}, {"smiles": "O=C(NCc1ccco1)c1ccc(Cl)s1", "hERG current change (%, negative = inhibition) at 10uM": -3.82}, {"smiles": "O=C(Nc1cccc(Cl)c1)NC1(C(=O)NCc2cccs2)CCCCC1", "hERG current change (%, negative = inhibition) at 10uM": 9.15}, {"smiles": "Cc1ccc(NC(=O)CN(c2ccccc2)S(=O)(=O)N(C)C)cc1", "hERG current change (%, negative = inhibition) at 10uM": -11.5}, {"smiles": "O=C(NC1CCCC1)c1ccc(CS(=O)(=O)Cc2ccccc2F)o1", "hERG current change (%, negative = inhibition) at 10uM": -7.89}, {"smiles": "COc1ccc(C(=O)NC2CCCc3ccccc32)cc1OC1CCN(C(C)=O)CC1", "note": "(stereo not drawn)", "hERG current change (%, negative = inhibition) at 10uM": -12.9}, {"smiles": "O=C(CCC(=O)Nc1ccc(Br)cc1)N/N=C/c1ccc(O)cc1", "hERG current change (%, negative = inhibition) at 10uM": 10.1}, {"smiles": "O=C(COc1cc2oc(=O)cc(-c3ccccc3)c2cc1Cl)NCC1CCC(C(=O)O)CC1", "note": "(stereo not drawn)", "hERG current change (%, negative = inhibition) at 10uM": -10.2}, {"smiles": "Cc1ccc(C(=O)N/N=C/c2nc3ccccc3n2C)cc1", "hERG current change (%, negative = inhibition) at 10uM": 10.1}, {"smiles": "O=C(NCCC1=CCCCC1)C1CCN(S(=O)(=O)N2CCOCC2)CC1", "hERG current change (%, negative = inhibition) at 10uM": -11.6}]}]}
